Assay results as given in paper PMC3320765 (Biochemistry, 2012).

How the values were obtained:
[1] = target: 6His-UBN1(41–175) (human, UniProt Q9NPG3 41-175); assay: AUC
[2] = target: 6His-UBN1(41–119) (human, UniProt Q9NPG3 41-119); assay: AUC

B1: HIRA([…]), untagged (HIRA WD repeats) (domain or fragment)
chain: not shown
stoichiometry N [1]: 1 | stoichiometry N [2]: 1
